# Test results taken from PubChem BioAssay AID686978 (National Center for Advancing Translational Sciences (NCATS), 2013).
# Several values for one entry are separate records, joined by “and”; a condition that tells them apart may be missing. Identical values can stand only once. Out of some 420,000 compounds screened, about 64,000 (15%) were called active. This list was built around the results that the source calls inconclusive (neither active nor inactive); the mix of calls is not that of the screen. Calls come from the whole dose curve; as a rule, active = well fitted inhibition curve with a large enough effect; inconclusive = small, poorly fitted or top-dose-only effect; inactive = flat fitted curve, though single readings scatter. Where the call is inconclusive, the potency comes from a doubtful curve fit. Some structures have more than one record in an assay (separate samples or runs), and their calls can disagree.
# Test: qHTS for Inhibitors of human tyrosyl-DNA phosphodiesterase 1 (TDP1): qHTS in cells in absence of CPT; note: nearly all actives have a fitted effect of over 55% in size
# Conditions: DT40 Tdp1-/- hTDP1 cells, no CPT, ATP luminescence, 48 h; activity change, negative = growth inhibition: at 46.2 µM (top of the series) unless noted
# Outline: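 Cells were dispensed at 400 per well, compounds added by pin tool, plates incubated ≥48 hr at 37 °C, then CellTiter-Glo added for 30 min at room temperature before luminescence reading. Line: DT40 Tdp1-/- complemented with hTDP1; camptothecin omitted.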
# % is set by controls: 0 for no effect and ±100 for the full control effect; potency is the fitted concentration of half-maximal effect; tags give direction and shape of the fitted curve.
Structure (SMILES),Potency,"activity change, negative = growth inhibition"
CCNC(=S)Nc1ccc(C)c(S(=O)(=O)Nc2ccccc2OC)c1,"inconclusive: 8.2 µM [inhibitor, partial curve]",–
COc1ccc(CCNC(=O)c2cc3c(=O)n4cccc(C)c4nc3n2C)cc1,"inconclusive: 11.6 µM [inhibitor, partial curve, poor fit]",–
Cc1ccc(S(=O)(=O)NCCS(=O)(=O)N2CCN(c3ccc(F)cc3)CC2)cc1,active: 11.6 µM,–
Cc1cccc(N(CC(=O)NCCc2ccccc2)S(=O)(=O)c2ccccc2)c1C,active: 18.4 µM,–
O=C(Nc1nc2ccccc2s1)C1CCCN1S(=O)(=O)c1ccc(Cl)cc1 (stereo unspecified),inactive,–
COc1ccc(-c2nc(Cn3c(SCc4ccc(C)cc4)nc4ccncc43)c(C)o2)cc1OC,"inconclusive: 29.1 µM [inhibitor, single point]",–
COc1ccc(/C(C)=N/NC(=O)c2ccc(NS(=O)(=O)c3cccs3)cc2)cc1,"inconclusive: 20.6 µM [inhibitor, single point]",–
Cn1cnc(S(=O)(=O)Nc2ccc3c(c2)OCCO3)c1,inactive,–
CN(C)c1nc(-c2ccc([N+](=O)[O-])cc2)cs1,"inconclusive: 5.17 µM [inhibitor, full curve, poor fit]",–
O=C(CN1C(=O)NC2(CCCCC2)C1=O)Nc1ccccc1N1CCCC1,inactive,–
CCOC(=O)C1=C(COC(=O)/C=C/c2ccc(O)c(OC)c2)NC(=O)NC1C (stereo unspecified),"inconclusive: 20.6 µM [inhibitor, single point]",–
CCC(CC)C(=O)Nc1nnc(S(=O)(=O)N(C)c2cc(C)cc(C)c2)s1,"inconclusive: 29.1 µM [inhibitor, single point]",–
COc1ccc2c(C)c(CCC(=O)NCc3cccc(Cl)c3)c(=O)oc2c1,"inconclusive: 16.4 µM [inhibitor, partial curve]",–
COc1ccc(C(=O)c2ccccc2)c(O)c1,"inconclusive: 33.5 µM [inhibitor, single point]",–
O=C(Nc1ccc2c(c1)Cc1ccccc1-2)c1cccnc1,–,inconclusive: -34.4% [inhibitor]
O=S(=O)(c1ccc(F)cc1)N1CCc2ccccc21,"inconclusive: 29.1 µM [inhibitor, single point]",–
Cc1cc(C)n2nc3nc4c(cc3c2n1)CCCC4,"inconclusive: 18.4 µM [inhibitor, partial curve]",–
CCOC(=O)C1CCCN(S(=O)(=O)c2cnc(Cl)c(Br)c2)C1 (stereo unspecified),"inconclusive: 18.4 µM [inhibitor, single point]",–
COc1cccc(/C=C2\CCC(C3CCCC3)C2=O)c1OC (stereo unspecified),–,inconclusive: -31.4% [inhibitor]
Cc1ccc(S(=O)(=O)N2CCN(S(=O)(=O)c3ccccc3)C2c2ccc(N(C)C)cc2)cc1 (stereo unspecified),"inconclusive: 20.6 µM [inhibitor, single point]",–
CC(C)(CNS(=O)(=O)c1cccs1)N1CCOCC1,inactive,–
COc1cccc(/C=N/Nc2ncnc3scc(-c4ccccc4)c23)c1OC,active: 18.4 µM,–
O=C(O)c1ccc2c3c(cccc13)C(=O)N(OS(=O)(=O)c1ccccc1)C2=O,inactive,–
CCc1ccc2c(c1)NC(=O)C2(C)Cc1ccc(C(F)(F)F)o1 (stereo unspecified),"inconclusive: 16.4 µM [inhibitor, single point]",–

Structure (SMILES),Potency,"activity change, negative = growth inhibition"
COc1cccc(/C=C2/Sc3ccc(C(=O)NCCN4CCCCCC4)cc3NC2=O)c1,"inconclusive: 29.1 µM [inhibitor, single point]",–
CC(C)c1ccc(C2C(C(=O)c3ccco3)=C(O)C(=O)N2CC2CCCO2)cc1 (stereo unspecified),–,active: -77.9%
O=S(=O)(NCCSCc1ccc(Cl)c(Cl)c1)c1ccc2c(c1)OCCO2,"inconclusive: 0.411 µM [inhibitor, full curve, poor fit]",–
CC/C(O)=C1\C(=O)CC(C)(C)CC1=NCCc1nc2ccccc2[nH]1,active: 20.6 µM,–
Cc1cc2nc(SCC(=O)O)nc(C)c2cc1C,"inconclusive: 22.4 µM [inhibitor, single point]",–
c1ccc2c(c1)COc1c3ncccc3nn1-2,"inconclusive: 11.6 µM [inhibitor, partial curve]",–
COc1ccc(CNc2ncnc3nc[nH]c23)cc1,inactive and active: 14.1 µM,–
C=CC[C@H](CC(=O)N(CCO)Cc1ccccc1)C(=O)N[C@H](C)COC(=O)[C@@H](CC=C)Cc1ccc(F)cc1,active: 20.6 µM,–
Cc1ccccc1-n1nnnc1SCC(C)C,"inconclusive: 29.1 µM [inhibitor, single point]",–
CCC(C)NC(=O)COC(=O)c1ccc(Cl)cc1O (stereo unspecified),inactive,–
O=C(NCC1CCCO1)c1ccc2c(c1)N(Cc1ccccc1)C(=O)CS2=O (stereo unspecified),"inconclusive: 29.1 µM [inhibitor, single point]",–
COc1ccc([C@H]2C[C@H](O)[C@@H](n3cc(C4CC4)nn3)CN2C(=O)C2CCCCC2)cc1,inactive,–
Cc1ccccc1N(CC(=O)N1CCOCC1)S(C)(=O)=O,inactive,–
O=C(NC1CCCC1)c1cc2c(=O)n3ccccc3nc2s1,"inconclusive: 25.9 µM [inhibitor, single point]",–
COCc1nn2c(N)c(-c3ccccc3)cnc2c1-c1ccccc1,inactive,–
Cc1ccccc1-c1nn(-c2ccc(F)cc2F)cc1CNC1CC1,"inconclusive: 23.1 µM [inhibitor, single point]",–
Cc1ccc(NC(=O)c2c3c(nc4ccccc24)CCC3)cc1S(=O)(=O)N(C)C,"inconclusive: 29.1 µM [inhibitor, single point]",–
CCc1ccc(CN2CCC(n3nccc3NC(=O)c3cccc(F)c3)CC2)cc1,"inconclusive: 29.1 µM [inhibitor, single point]",–
COC(=O)c1sccc1NC(=O)Cc1ccc(OC)cc1,"inconclusive: 29.1 µM [inhibitor, single point]",–
CN(C(=O)c1ccc(NC(=O)Cc2cccc(NC(=O)C3CCN(C(=O)C4CCCCC4)CC3)c2)cc1)C1CC1,"inconclusive: 29.1 µM [inhibitor, single point]",–
O=c1[nH]nc(-c2ccc(F)cc2)cc1Cc1ccc(F)cc1,inactive,–
Cc1ccc(S(=O)(=O)N2CCCCC2)cc1NC(=O)CNc1ccc(C(F)(F)F)cc1,"inconclusive: 23.1 µM [inhibitor, single point]",–
Cc1ccc(-c2ccc(=O)n(CC(=O)NCCCN3CCCCC3C)n2)cc1 (stereo unspecified),inactive,–
O=C(Nc1ccc(C(=O)O)cc1)/C(=C\C=C\c1ccccc1)NC(=O)c1ccc(Br)cc1,inactive,–

Structure (SMILES),Potency,"activity change, negative = growth inhibition"
O=C(Cc1ccccc1[N+](=O)[O-])OCC(=O)N1CCN(c2ccccc2)CC1,inactive,–
Cc1ccc2c(c1)N(CC(=O)Nc1ccccc1C(F)(F)F)C(=O)c1cccnc1O2,"inconclusive: 23.1 µM [inhibitor, single point]",–
COc1ccc(Cn2ccnc2SCC(=O)Nc2ccc3c(c2)OCCO3)cc1,inactive,–
COc1cc(CCN(C(=O)c2cc3ccccc3[nH]2)C(c2ccccn2)c2nc3ccccc3[nH]2)cc(OC)c1 (stereo unspecified),"inconclusive: 29.1 µM [inhibitor, single point]",–
COC(=O)[C@@]12C[C@@H](CC(=O)NCC3CCCCC3)C(=O)N(CCc3ccc(OC)c(OC)c3)C1=CCC(C)(C)C2,"inconclusive: 29.1 µM [inhibitor, single point]",–
CCOC(=O)c1cc(CC)sc1NC(=O)c1cc([N+](=O)[O-])ccc1N1CCOCC1,active: 1.3 µM,–
Cc1ccc(NC(=O)C(=O)NC(C)C2COc3ccccc3O2)cc1 (stereo unspecified),"inconclusive: 25.9 µM [inhibitor, single point]",–
Cn1cc(CN2C[C@]3(C)C[C@H]2CC(C)(C)C3)c(-c2ccc3c(c2)OCCO3)n1,"inconclusive: 18.4 µM [inhibitor, single point]",–
O=C(NC1CCCC1)c1ccc(CS(=O)(=O)Cc2ccccc2F)o1,inactive,–
COC(=O)c1ccccc1NC(=O)C(C)n1nc(C)c2c(C)n(-c3ccccc3)nc2c1=O (stereo unspecified),"inconclusive: 29.1 µM [inhibitor, single point]",–
CCN1CCCC1CNC(=O)c1ccc(Sc2ccccc2Cl)c([N+](=O)[O-])c1 (stereo unspecified),"inconclusive: 18.4 µM [inhibitor, single point]",–
O=[N+]([O-])c1cccc(S(=O)(=O)Nc2ccc(-c3ccc(N4CCOCC4)nn3)cc2)c1,"inconclusive: 16.4 µM [inhibitor, partial curve]",–
Cc1cc(C(=O)NCC2COc3ccccc3O2)c2ccccc2n1 (stereo unspecified),"inconclusive: 29.1 µM [inhibitor, single point]",–
CCOc1ccc(NC(=O)CSc2nc3c(c(=O)n2C)SC(C)C3)cc1 (stereo unspecified),"inconclusive: 23.1 µM [inhibitor, single point]",–
COc1cccc(C(=O)N(Cc2cccc(F)c2)C2CCS(=O)(=O)C2)c1 (stereo unspecified),"inconclusive: 25.9 µM [inhibitor, single point]",–
O=C(NC(=O)c1ccc(F)cc1F)Nc1ccc(Cl)cc1,inactive,–
CC1(C)S/C(=N/N=C/c2cccs2)NC1=O,inactive,–
COc1cccc(CNC(=O)CN2c3cccc4cccc(c34)S2(=O)=O)c1,inactive,–
O=C(CCc1nc2ccccc2s1)Nc1ccccc1,"inconclusive: 29.1 µM [inhibitor, single point]",–
O=C(NN=C1CCCCCC1)c1cc(-c2ccccc2)nc2ccccc12,active: 14.6 µM,–
CCOC(=O)C(NC(=O)CC(C)C)(Nc1sc2c(c1C(N)=O)CCCC2)C(F)(F)F (stereo unspecified),inactive,–
Cc1nc(-c2ccc3c(c2)OCCCO3)cs1,inactive,–
O=C(C[n+]1cccc(Br)c1)c1ccc(-c2ccccc2)cc1,"inconclusive: 25.1 µM [inhibitor, single point] and inconclusive: 29.1 µM [inhibitor, single point]",–
